About 16,000 (7.3%) of roughly 220,000 compounds were called active. Inconclusive results, whose numbers are uncertain, are shown with a selection of clear calls. Calls come from the whole dose curve; as a rule, active = well fitted inhibition curve with a large enough effect (not every such curve was filed as active); inconclusive = small, poorly fitted or top-dose-only effect, or another doubt; inactive = no such curve, though single readings can be large or run the other way. Potencies of inconclusive entries are left out as doubtful fits.
target: Aldehyde dehydrogenase 1A1 (Homo sapiens) (UniProt P00352); test: qHTS Assay for Inhibitors of Aldehyde Dehydrogenase 1 (ALDH1A1); conditions: Purified ALDH1A1, NADH fluorescence, propionaldehyde substrate; series mostly up to 75.3 µM
Potency is the fitted concentration of half-maximal effect; tags give direction and shape of the fitted curve.

Sequence of UniProt P00352 (P00352 whole entry, looked up): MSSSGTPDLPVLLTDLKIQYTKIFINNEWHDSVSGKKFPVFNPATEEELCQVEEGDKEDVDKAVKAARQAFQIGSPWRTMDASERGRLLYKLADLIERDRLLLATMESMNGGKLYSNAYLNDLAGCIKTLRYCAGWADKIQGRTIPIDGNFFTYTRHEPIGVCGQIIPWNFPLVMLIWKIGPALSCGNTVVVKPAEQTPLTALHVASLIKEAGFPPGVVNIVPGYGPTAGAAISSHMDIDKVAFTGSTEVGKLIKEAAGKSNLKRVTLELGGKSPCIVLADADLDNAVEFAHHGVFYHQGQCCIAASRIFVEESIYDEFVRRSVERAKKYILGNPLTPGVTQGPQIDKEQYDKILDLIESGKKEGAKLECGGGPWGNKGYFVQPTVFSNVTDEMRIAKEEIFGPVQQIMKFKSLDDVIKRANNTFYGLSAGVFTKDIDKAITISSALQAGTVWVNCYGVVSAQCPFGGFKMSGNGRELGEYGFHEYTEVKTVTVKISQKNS

Compound	Potency
CC(C)(C)N(NC(=O)OCc1ccccc1)C(=O)c1ccccc1	inactive
Cc1nc(-c2ccccc2)sc1-c1nnc(C2CC2)o1	inconclusive [inhibitor, single point]
CCOc1ccccc1-n1c(SCC(=O)NCc2ccco2)nnc1-c1ccncc1	inconclusive [inhibitor, single point]
O=[N+]([O-])c1ccc2c(c1)C(N1CCOCC1)/C(=C/C1(O)CCCCC1)O2 (stereo unspecified)	active: 10 µM
COC(=O)c1cn(-c2ccccc2)c(=O)c2ccccc12	inconclusive [inhibitor, single point]
O=C(c1ccco1)c1cn(CC(=O)N2CCCCC2)c2ccccc12	inactive
O=[N+]([O-])c1ccc2c(c1)C(N1CCOCC1)/C(=C/COc1ccc(Cl)cc1Cl)O2 (stereo unspecified)	inconclusive [inhibitor, single point]
Cc1nnc(SCC(=O)NCc2ccco2)n1Cc1ccccc1	inactive
Cc1nc2c(C(=O)NCCc3ccccc3)c[nH]n2c(=O)c1Cl	inactive
COc1ccc(N2CSC3=C(C#N)C(c4cc(OC)ccc4OC)CC(=O)N3C2)c(OC)c1 (stereo unspecified)	active: 8.91 µM
CCOc1ccccc1NC(=O)CN(c1ccc(OC)cc1OC)S(=O)(=O)c1ccccc1[N+](=O)[O-]	inconclusive [inhibitor, partial curve]
Cc1ccc2cc(C#N)c(N3CCN(C)CC3)nc2c1	inactive
CCCCC1=CC2=CC(=O)C(C)(OC(=O)CCC(=O)OC)C(=O)C2=CO1 (stereo unspecified)	inactive
COc1cc(/C=N/n2c(-c3ccc4c(c3)NC(=O)CO4)csc2=Nc2cccc(C)c2)ccc1O	inconclusive [inhibitor, single point]
O=C1NC(c2ccccn2)Nc2sc3c(c21)CCC3 (stereo unspecified)	inconclusive [inhibitor, single point]
CCOC(=O)c1c(C)oc2c1c1c(c3ccccc32)OCN(Cc2cccnc2)C1	active: 0.199 µM
CCOC(=O)c1ccc(NC(=O)CSc2nc3c(c(=O)n2C)SC(C)C3)cc1 (stereo unspecified)	inconclusive [inhibitor, single point]
COc1ccccc1C(=O)Nc1nnc(SCC(=O)Nc2ccc3c(c2)oc2ccccc23)s1	inconclusive [inhibitor, single point]
Cc1cc(NC(=O)CSc2nnnn2Cc2ccccc2)no1	active: 31.6 µM
COc1ccccc1/C=C(\C#N)C(=O)Nc1ccc(S(N)(=O)=O)cc1	inconclusive [inhibitor, single point]
Cc1cc(C)n(-c2ccc(C(C)C)cc2)c(=O)c1C#N	inconclusive [inhibitor, single point]
Cc1ccc(S(=O)(=O)N2CCOCC2)cc1NC(=O)CN1CCN(c2ccc(O)cc2)CC1	inconclusive [inhibitor, single point]
COC(=O)c1ccc(NCC(=O)c2ccccc2)cc1	active: 11.2 µM
COc1cc(/C=C2\S/C(=N/S(=O)(=O)c3ccccc3)NC2=O)c([N+](=O)[O-])cc1OC	inactive
Cc1ccc(OCCN2C(=O)C(=O)c3cccc(C)c32)cc1	active: 0.199 µM
COc1ccc(C(=O)/C=C/c2ccc(OC)c(COc3ccccc3F)c2)cc1	active: 2.51 µM

Compound	Potency
COc1ccc(OCCSc2nc3nc(C)cc(C)n3n2)cc1	inactive
CC(C)CCOc1ccc(C(=O)C[N+]2(C)CCOCC2)cc1	inconclusive [inhibitor, partial curve, poor fit]
C1CCCN(c2nc3nonc3nc2N2CCCCCC2)CC1	inconclusive [inhibitor, single point]
O=C(c1ccc(S(=O)(=O)N2CCOCC2)cc1)N1CCN(c2ccccc2)CC1	inactive
O=C1CN(C(=O)COC(=O)c2cccnc2Cl)c2ccccc2N1	inactive
CCOC(=O)C(Sc1nnc2c3ccccc3n(CC)c2n1)C(=O)OCC	inconclusive [inhibitor, full curve]
COc1ccc(Cn2c(-c3ccc(C)cc3)nc3c(c(=O)c4ccccc4n3C)c2=O)cc1	inconclusive [inhibitor, partial curve]
CCC(C)c1ccc2oc(-c3ccc(NC(=O)c4ncn[nH]4)cc3)nc2c1 (stereo unspecified)	inconclusive [inhibitor, full curve]
CCCC(=O)N1CCc2cc(-c3nc(N)sc3C)ccc21	inactive
COc1cc2c(cc1OC)CC1(CCCCC1)N=C2	inactive
O=S(=O)(c1ccccc1)N1CCC2(CC1)CO2	inconclusive [inhibitor, partial curve, poor fit]
COc1cc(SC)ccc1C(=O)Nc1ccc(C)cc1	inactive
CCn1c(SCCN2CCCCC2)nnc1-c1ccc(S(=O)(=O)N2CCOCC2)cc1	inconclusive [inhibitor, partial curve]
CC1CCN(C(=O)c2cc3ccccc3o2)CC1	inconclusive [inhibitor, single point]
Cc1nnc(NC(=O)Cn2cnc3c2c(=O)n(C)c(=O)n3C)s1	inactive
COc1ccc(O[C@H]2C=C[C@@H](c3ccccc3)O[C@H]2CO/N=C\C[C@@H]2C=C[C@H](OC(C)=O)[C@H](COC(C)=O)O2)cc1	inconclusive [inhibitor, partial curve]
COc1ccc(C(=O)OC2CCN(c3ncc(C(F)(F)F)cc3Cl)CC2)cc1	inactive
O=C(CSCc1ccc(Cl)cc1)NN=C1CCCC1	inconclusive [inhibitor, single point]
CC1(C)Cc2ccccc2C(N)=C1C#N	inconclusive [inhibitor, single point]
O=C(Nc1ccc2c(c1)OCO2)C(c1ccccc1)N1CCN(C(=O)c2ccco2)CC1 (stereo unspecified)	active: 2.99 µM
CN(CC(=O)NCc1ccccc1)S(=O)(=O)c1cnc[nH]1	inactive
C=CCN(CC=C)S(=O)(=O)c1ccc(NC(=S)NC(=O)/C=C/c2cccc3ccccc23)cc1	inconclusive [inhibitor, partial curve]
Cc1ccc(C(=O)NCCSC(C)(C)C)cc1[N+](=O)[O-]	inconclusive [inhibitor, single point]
Cc1nc2cnc(OCc3ccccc3)nc2n(CCc2ccccc2)c1=O	inconclusive [inhibitor, partial curve]
Cc1ccc(-n2c(N)c(S(=O)(=O)c3ccccc3)c3nc4ccccc4nc32)cc1	inconclusive [inhibitor, partial curve]
CN(C)NC(=S)Nc1ccc(Cl)cc1	inconclusive [inhibitor, single point]

Compound	Potency
COCCOC(=O)N/C=C\c1nc2ccccc2c(=O)[nH]1	inactive
N#Cc1ccccc1CN1C(=O)S/C(=C/c2cccn2-c2cccc(C(=O)O)c2)C1=O	inconclusive [inhibitor, full curve]
N#Cc1c(-c2ccccc2)ccn(Cc2ccc(Cl)cc2)c1=O	inconclusive [inhibitor, partial curve]
Cc1cnc(CNc2ncnc3ccc(-c4ccccc4C(F)(F)F)cc23)cn1	inactive
CC1c2ccccc2SC(CCCN(C)C)c2ccccc21 (stereo unspecified)	inactive
CC1(C)OCC([C@H](O)C2=CCCCC2=O)CO1	inactive
CCOC(=O)C(C(=O)OCC)C1CS(=O)(=O)CC1C(C(=O)OCC)C(=O)OCC (stereo unspecified)	inactive
O=C(O)c1cccc(N2CCCC2)c1	inconclusive [inhibitor, single point]
CC(C)NC(=S)N1CCN(C/C=C/c2ccccc2)CC1	inactive
CCc1cc2cc3c(cc2nc1SCC(=O)Nc1cc(C)on1)OCO3	inactive
CCCCn1nnnc1SCC(=O)c1ccc(C)c(C)c1	active: 7.94 µM
C=C(C)C(=O)OCCCCCCCCCC	inactive
C#CCOCCOCCOCCNc1nc(N2CCN(C(=O)[C@H](Cc3ccc(O)cc3)n3cc([C@@H](N)CC(C)C)nn3)CC2)nc(N2CCN(C(=O)[C@H](Cc3ccc(O)cc3)n3cc([C@@H](N)CC(C)C)nn3)CC2)n1	active: 15.8 µM
S=C(NCc1ccccn1)Nc1cccc(Cl)c1	inconclusive [inhibitor, single point]
CCOc1ccccc1N(CC(=O)N1CCOCC1)S(=O)(=O)c1ccc(SC)cc1	active: 8.91 µM
c1ccc2nc3[nH]cnc3nc2c1	inconclusive [inhibitor, single point]
CCOC(=O)/C(C#N)=C/c1ccc(OC(=O)c2ccco2)c(OCC)c1	inconclusive [inhibitor, full curve, poor fit]
COc1ccc(-n2c(Cc3cccn3C)nnc2SCC(=O)Nc2ccccc2C)cc1	inconclusive [inhibitor, single point]
N=C1C(c2ccccc2)=C(O)CN1c1ccc2c(c1)OCO2	inactive
O=C(O)c1cc(-c2ccc(/C=C3\NC(=O)N(c4ccc(Cl)cc4)C3=O)o2)ccc1Cl	inconclusive [inhibitor, single point]
COc1cccc2cc(C(=O)NCc3ccccn3)c(=O)oc12	inconclusive [inhibitor, single point]
CCOC(=O)N1CCC(NC(=O)Cn2nc(Cc3ccncc3)c3ccccc3c2=O)CC1	inactive
Cc1cc(C2C(C#N)=C(N)Oc3n[nH]c(C)c32)c(C)s1 (stereo unspecified)	inactive
Cc1ccc(C(=O)COC(=O)CCCC(=O)NC2CCCCC2)cc1[N+](=O)[O-]	inactive

Reference: PubChem BioAssay AID1030 (National Center for Advancing Translational Sciences (NCATS), 2008)
